In assay [1] the target is T1, pertussis toxin (PT) (Bordetella pertussis). Put plainly: cell-based or functional assay.
The target in assay [2] is T1, pertussis toxin (PT). Put plainly: BLI, tetravalent Fc fusion on AHC biosensor, PTpuri 6.25-100 nM in solution.
Assay [3] deals with T1, pertussis toxin (PT). Put plainly: ELISA, PT coated 0.3 µg/well, anti-human IgG Fc-HRP, four-parameter fit. For orientation: An ELISA detects its analyte on a solid surface through an enzyme-linked reagent.
In assay [4] the target is T1, pertussis toxin (PT). Put plainly: BLI (Octet), Fc fusion on AHC biosensor, PT 6.25-100 nM in solution, 1:1 model.

The results in this text go back to patent US20230061378A1 (SUZHOU ALPHAMAB, published 2023).

For orientation: Kd means the concentration at which binding is half-saturated. Higher therefore signals a looser complex. As a reminder, the koff is the rate constant with which the complex falls apart. In general, kon refers to the rate constant with which the complex forms. Higher therefore signals faster complex formation. As usually defined, the EC50 is the concentration at which the effect is half-maximal. A higher EC50 goes with a need for much substance.

Numbering of substitutions follows the chain as printed.

B1: iPT15n7Fc (Fc fusion)
chain: QVQLQESGGGSVQAGGSLRLSCAASGYTYGSYCMAWFRQAPGKEREGVAGVDSDGTTRYADSVKGRFTISKDNAENTLYLQMNSLKPEDTSMYYCAAGVCGTGGSWYEGDAGLFMYEFAYWGQGTQVTVSSQVQLQESGGGSVQPGGSLRLSCAASGYTYSSYCMGWFRQAPGKEREGVAAIDSDGRTSYADFVKGRFTISKDNAKNTLYLQMNSLKPEDTAKYYCATEQRIGGSWYDLCGGADFGYWGQGTQVTVSS[human IgG1 Fc cut from this listing]
notes: also called iPT1507Fc
With B1, the “concentration with partial neutralizing (CHO-K1 cells with PT toxin)” value (shortened to “concentration with partial neutralizing”) with pertussis toxin (PT) [1] is 5 µg/mL. Also, in the assay with pertussis toxin (PT) [2], the Kd was below 0.001 nM, the koff is below 1e-07 s⁻¹ and the kon was 107000 M⁻¹ s⁻¹.

B2: iPT7n42Fc (Fc fusion)
chain: QVQLQESGGGSVQPGGSLRLSCAASGYTYSSYCMGWFRQAPGKEREGVAAIDSDGRTSYADFVKGRFTISKDNAKNTLYLQMNSLKPEDTAKYYCATEQRIGGSWYDLCGGADFGYWGQGTQVTVSSQVQLQESGGGSVQAGGSLRLSCAASGYTYSDVCMGWFRQAPGKEREGVAAIDSVGNTNYADSVKGRFTISKDNAKNTLYLQMNSLKPEDTAMYYCAAQRCLGWVPLVPHEYGFWGQGTQVTVSS[human IgG1 Fc cut from this listing]
Take B2: the “concentration with partial neutralizing” value in the assay with pertussis toxin (PT) [1] worked out at 2.5 µg/mL. In the assay with pertussis toxin (PT) [2], the Kd is 0.301 nM, the koff was 0.000182 s⁻¹ and the kon turned out to be 607000 M⁻¹ s⁻¹.

B3: iPT12n15Fc (Fc fusion)
chain: QVQLQESGGGSVQAGGSLRLSCAASGYTYSSYCMGWFRQAPGKEREGVAGIESDGSTSYADSVKGRFSISKDNVKNTLYLQMNTLKPEDTGIYYCAVQSPLPGGSWYSLCGGADFGYWGQGTQVTVSSQVQLQESGGGSVQAGGSLRLSCAASGYTYGSYCMAWFRQAPGKEREGVAGVDSDGTTRYADSVKGRFTISKDNAENTLYLQMNSLKPEDTSMYYCAAGVCGTGGSWYEGDAGLFMYEFAYWGQGTQVTVSS[human IgG1 Fc cut from this listing]
For B3, the “Concentration for completely neutralizing PTToxin” value with pertussis toxin (PT) [1] amounted to 0.111 µg/mL. Also, in the assay with pertussis toxin (PT) [2], the affinity, expressed as Kd, was 0.263 nM; the koff was 0.000149 s⁻¹; the kon worked out at 567000 M⁻¹ s⁻¹.

B4: iPT15n42Fc (Fc fusion)
chain: QVQLQESGGGSVQAGGSLRLSCAASGYTYGSYCMAWFRQAPGKEREGVAGVDSDGTTRYADSVKGRFTISKDNAENTLYLQMNSLKPEDTSMYYCAAGVCGTGGSWYEGDAGLFMYEFAYWGQGTQVTVSSQVQLQESGGGSVQAGGSLRLSCAASGYTYSDVCMGWFRQAPGKEREGVAAIDSVGNTNYADSVKGRFTISKDNAKNTLYLQMNSLKPEDTAMYYCAAQRCLGWVPLVPHEYGFWGQGTQVTVSS[human IgG1 Fc cut from this listing]
notes: also called iPT15042Fc
As for B4, in the assay with pertussis toxin (PT) [1], the “Concentration for completely neutralizing PTToxin” value came out at 100 µg/mL. In the assay with pertussis toxin (PT) [2], this molecule came in with a Kd of 0.167 nM, a koff of 0.000121 s⁻¹ and a kon of 722000 M⁻¹ s⁻¹.

B5: huPT42v1Fc (Fc fusion)
chain: QVQLVESGGGSVQAGGSLRLSCAASGYTYSDVCMGWFRQAPGKEREGVAAIDSVGNTNYADSVKGRFTISKDNSKNTLYLQMNSLRAEDTAVYYCAAQRCLGWVPLVPHEYGYWGQGTLVTVSS[human IgG1 Fc cut from this listing]
In the assay with pertussis toxin (PT) [3], B5 showed an EC50 of 0.0258 µg/mL.

B6: huPT42v11Fc (Fc fusion)
chain: B5 chain with S11L, A14P, R86K, A87P
notes: also called huPT42vlIFo
Molecule B6 came in with an EC50 with pertussis toxin (PT) [3] of 0.025 µg/mL.

B7: huPT42v7Fc (Fc fusion)
chain: B5 chain with S11L, A14P
notes: also called huPT427F0
B7 gave an EC50 with pertussis toxin (PT) [3] of 0.0229 µg/mL.

B8: huPT42v10Fc (Fc fusion)
chain: B5 chain with K71R
notes: also called huPT42v1OFc
In the assay with pertussis toxin (PT) [3], B8 displayed a 50% effective concentration (EC50) of 0.0255 µg/mL.

B9: huPT42v3Fc (Fc fusion)
chain: B5 chain with E44G, R45L
B9 came in with an EC50 with pertussis toxin (PT) [3] of 0.0262 µg/mL.

B10: huPT7v2Fc (Fc fusion)
chain: QVQLVESGGGLVQPGGSLRLSCAASGYTYSSYCMGWFRQAPGKEREGVAAIDSDGRTSYADFVKGRFTISRDNSKNTLYLQMNSLRAEDTAVYYCATEQRIGGSWYDLCGGADFGYWGQGTLVTVSS[human IgG1 Fc cut from this listing]
B10 displayed an EC50 with pertussis toxin (PT) [3] of 0.0337 µg/mL.

B11: huPT7v10Fc (Fc fusion)
VHH-Fc: B10 chain with L11S, P14A
As to B11, the EC50 with pertussis toxin (PT) [3] was found to be 0.0356 µg/mL.

B12: huPT7v9Fc (Fc fusion)
VHH-Fc: B10 chain with L11S, P14A, E44G, R45L
In turn, B12 showed an EC50 with pertussis toxin (PT) [3] of 0.0346 µg/mL.

B13: huPT7v7Fc (Fc fusion)
VHH-Fc: B10 chain with R71K
As for B13, in the assay with pertussis toxin (PT) [3], the response was half-maximal at 0.036 µg/mL (EC50).

B14: iPT7n22Fc (Fc fusion)
chain: QVQLQESGGGSVQPGGSLRLSCAASGYTYSSYCMGWFRQAPGKEREGVAAIDSDGRTSYADFVKGRFTISKDNAKNTLYLQMNSLKPEDTAKYYCATEQRIGGSWYDLCGGADFGYWGQGTQVTVSSQVQLQESGGGSVQAGGSLQLSCAATDITYSRCMAWFRQAPGKSREGVAALSTNGGSTWYADSVKGRFTISRDGAKNTIYLQMRSLKPEDTAMYYCADSSFFSCRDCSGGDCPRSRDYKYWGQGTQVTVSS[human IgG1 Fc cut from this listing]
Consider B14, for which the “Concentration for completely neutralizing PTToxin” value with pertussis toxin (PT) [1] worked out at 5 µg/mL. In the assay with pertussis toxin (PT) [2], this molecule showed a Kd of 0.223 nM, a koff of 0.000156 s⁻¹ and a kon of 701000 M⁻¹ s⁻¹.

B15: iPT12diFc (Fc fusion)
chain: QVQLQESGGGSVQAGGSLRLSCAASGYTYSSYCMGWFRQAPGKEREGVAGIESDGSTSYADSVKGRFSISKDNVKNTLYLQMNTLKPEDTGIYYCAVQSPLPGGSWYSLCGGADFGYWGQGTQVTVSSQVQLQESGGGSVQAGGSLRLSCAASGYTYSSYCMGWFRQAPGKEREGVAGIESDGSTSYADSVKGRFSISKDNVKNTLYLQMNTLKPEDTGIYYCAVQSPLPGGSWYSLCGGADFGYWGQGTQVTVSS[human IgG1 Fc cut from this listing]
notes: also called iPTI2diFc
In the case of B15, the “concentration with partial neutralizing” value in the assay with pertussis toxin (PT) [1] came out at 0.333 µg/mL. In the assay with pertussis toxin (PT) [2], this molecule had a Kd of 0.267 nM, a koff of 8.89e-05 s⁻¹ and a kon of 334000 M⁻¹ s⁻¹.

B16: iPT28Fc (Fc fusion)
chain: QVQLQESGGGSVQAGGSLRLSCAASGYTYTSYCMGWFRQAPGKEREGVAGIDRDGIAVYADSVKGRFTVSKDNVEDTLSLQMNSLKPEDTAMYYCAADYRRWCRDEYEYWGQGTQVTVSS[human IgG1 Fc cut from this listing]
On to B16, for which, in the assay with pertussis toxin (PT) [4], the Kd was 0.278 nM, the koff came out at 0.000111 s⁻¹ and the kon is 399000 M⁻¹ s⁻¹.

B17: iPT42n7Fc (Fc fusion)
chain: QVQLQESGGGSVQAGGSLRLSCAASGYTYSDVCMGWFRQAPGKEREGVAAIDSVGNTNYADSVKGRFTISKDNAKNTLYLQMNSLKPEDTAMYYCAAQRCLGWVPLVPHEYGFWGQGTQVTVSSQVQLQESGGGSVQPGGSLRLSCAASGYTYSSYCMGWFRQAPGKEREGVAAIDSDGRTSYADFVKGRFTISKDNAKNTLYLQMNSLKPEDTAKYYCATEQRIGGSWYDLCGGADFGYWGQGTQVTVSS[human IgG1 Fc cut from this listing]
B17: the “Concentration for completely neutralizing PTToxin” value in the assay with pertussis toxin (PT) [1] was determined as 0.05 µg/mL. In the assay with pertussis toxin (PT) [2], this molecule showed a Kd of 0.267 nM, a koff of 0.000171 s⁻¹ and a kon of 641000 M⁻¹ s⁻¹.

B18: iPT21Fc (Fc fusion)
chain: QVQLQESGGGSVQAGGSLRLSCAASGYPYSRNCMAWFRQAPEKQREGVATIYNGDGTPYYADSVKGRFTISQDNAKNTVYLQMNSLKPDDTAIYYCAAARGCSLRTWSDQNLYAYWGQGTQVTVSS[human IgG1 Fc cut from this listing]
In the assay with pertussis toxin (PT) [4], B18 returned a Kd of 0.537 nM, a koff of 0.000278 s⁻¹ and a kon of 517000 M⁻¹ s⁻¹.

B19: iPT7n15Fc (Fc fusion)
chain: QVQLQESGGGSVQPGGSLRLSCAASGYTYSSYCMGWFRQAPGKEREGVAAIDSDGRTSYADFVKGRFTISKDNAKNTLYLQMNSLKPEDTAKYYCATEQRIGGSWYDLCGGADFGYWGQGTQVTVSSQVQLQESGGGSVQAGGSLRLSCAASGYTYGSYCMAWFRQAPGKEREGVAGVDSDGTTRYADSVKGRFTISKDNAENTLYLQMNSLKPEDTSMYYCAAGVCGTGGSWYEGDAGLFMYEFAYWGQGTQVTVSS[human IgG1 Fc cut from this listing]
notes: also called iPT7n15Fe
In the case of B19, the “Concentration for completely neutralizing PTToxin” value in the assay with pertussis toxin (PT) [1] stood at 0.1 µg/mL. In the assay with pertussis toxin (PT) [2], this molecule gave a koff of 5.47e-05 s⁻¹ and a kon of 105000 M⁻¹ s⁻¹.

B20: iPT12n42Fc (Fc fusion)
chain: QVQLQESGGGSVQAGGSLRLSCAASGYTYSSYCMGWFRQAPGKEREGVAGIESDGSTSYADSVKGRFSISKDNVKNTLYLQMNTLKPEDTGIYYCAVQSPLPGGSWYSLCGGADFGYWGQGTQVTVSSQVQLQESGGGSVQAGGSLRLSCAASGYTYSDVCMGWFRQAPGKEREGVAAIDSVGNTNYADSVKGRFTISKDNAKNTLYLQMNSLKPEDTAMYYCAAQRCLGWVPLVPHEYGFWGQGTQVTVSS[human IgG1 Fc cut from this listing]
For B20, the “Concentration for completely neutralizing PTToxin” value with pertussis toxin (PT) [1] is 0.333 µg/mL. In the assay with pertussis toxin (PT) [2], this molecule returned a Kd of 0.242 nM, an off-rate (koff) of 0.000129 s⁻¹ and a kon of 535000 M⁻¹ s⁻¹.

B21: iPT22n7Fc (Fc fusion)
chain: QVQLQESGGGSVQAGGSLQLSCAATDITYSRCMAWFRQAPGKSREGVAALSTNGGSTWYADSVKGRFTISRDGAKNTIYLQMRSLKPEDTAMYYCADSSFFSCRDCSGGDCPRSRDYKYWGQGTQVTVSSQVQLQESGGGSVQPGGSLRLSCAASGYTYSSYCMGWFRQAPGKEREGVAAIDSDGRTSYADFVKGRFTISKDNAKNTLYLQMNSLKPEDTAKYYCATEQRIGGSWYDLCGGADFGYWGQGTQVTVSS[human IgG1 Fc cut from this listing]
With B21, in the assay with pertussis toxin (PT) [1], the “Concentration for completely neutralizing PTToxin” value came out at 100 µg/mL. In the assay with pertussis toxin (PT) [2], this molecule had a Kd of 0.24 nM, a koff of 0.000138 s⁻¹ and a kon of 573000 M⁻¹ s⁻¹.
